PubChem BioAssay AID1508642 (National Center for Advancing Translational Sciences (NCATS), 2021)
Among all 43,000 compounds or so, about 200 (0.47%) were called active. Not shown: some 12% with an inconclusive outcome. Calls come from the whole dose curve; as a rule, active = well fitted cell-killing curve with a large enough effect; inconclusive = small, poorly fitted or top-dose-only effect, or effect the other way; inactive = flat fitted curve, though single readings scatter. The list shows a part of the results.
% is set by controls: 0 for no effect and ±100 for the full control effect; potency is the fitted concentration of half-maximal effect.

Test: Cell viability qHTS assay in S16 Pmp22-F2sN cells; note: nearly all actives have a fitted effect of over 65% in size
Settings: S16 Pmp22-F2sN Schwann cells viability, CellTiter-Glo, 24 h; series mostly up to 57.5 µM; activity change, negative = cytotoxicity: at the top concentration
Procedure, shortened: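 S16 Pmp22-F2sN Schwann cells (500-1,000/well) in phenol-red-free DMEM with 10% FBS received 23 nL compound by pin tool for 24 h at 37 °C. Viability was then read as CellTiter-Glo luminescence after 15 min at room temperature.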
For `Cc1ccc(NC(=O)Cn2c(=O)n(Cc3ccccc3)c(=O)c3sc4ccccc4c32)cc1`, the “activity change, negative = cytotoxicity” value was inactive: 0.285%. With `Cc1ccc(-n2c(=O)c3sc4ccccc4c3n(CC(=O)NC3CCCC3)c2=O)cc1C` the “activity change, negative = cytotoxicity” value was inactive: -1.4%. For `COc1ccc(OC)c(CCNC(=O)c2cc3c(s2)-c2c(C)cccc2OC3)c1`, the “activity change, negative = cytotoxicity” value was inactive: -14.6%. For `Cc1ccc2oc(=O)c3cnn(CC(=O)N4CCN(c5ccc(F)cc5)CC4)c3c2c1`, the “activity change, negative = cytotoxicity” value was inactive: 7.51%. For `Cc1cccc(NC(=O)c2oc3ccccc3c2NC(=O)c2cc(=O)c3ccccc3o2)c1`, the “activity change, negative = cytotoxicity” value was inactive: 6.51%. In the case of `CCOc1ccc(N2CC(NC(=O)c3ccc(Cl)cc3)CC2=O)cc1` (configuration not stated), the “activity change, negative = cytotoxicity” value is reported as inactive: 3.9%. In the case of `CN(c1ccc(F)cc1)S(=O)(=O)N1CCCC(C(=O)NCc2ccccc2Cl)C1` (configuration not stated), the “activity change, negative = cytotoxicity” value is reported as inactive: 1.06%. For `CCN(CC)S(=O)(=O)c1ccc(OC)c(NC(=O)c2sc3ccccc3c2Cl)c1`, the “activity change, negative = cytotoxicity” value was inactive: 6.94%. In the case of `Cc1ccc2c(c1)c1c(c(=O)n(Cc3ccccc3)c(=O)n1Cc1ccccc1F)n2C`, the “activity change, negative = cytotoxicity” value is reported as inactive: 11%. For `CNC(=O)CN1C(=O)COc2ccc(S(=O)(=O)N3CCCCCC3)cc21`, the “activity change, negative = cytotoxicity” value was inactive: -0.777%. For `CCOC(=O)N1CCc2c(sc3c2c(=O)n(Cc2ccccc2)c(=O)n3CC(=O)Nc2ccc(F)cc2)C1`, the “activity change, negative = cytotoxicity” value was inactive: -2.42%. For `COc1ccc(CN(C)c2ccc(-c3nc(-c4ccc(OC)c(OC)c4)no3)cc2[N+](=O)[O-])cc1`, the “activity change, negative = cytotoxicity” value was inactive: 5.09%. For `CCOc1ccc(NC(=O)CN(Cc2ccccc2)S(=O)(=O)c2ccc3nc(C)sc3c2)cc1`, the “activity change, negative = cytotoxicity” value was inactive: 2.66%. In the case of `CN1C(=O)c2cccc3c(S(=O)(=O)Nc4cccc(C(=O)O)c4)ccc1c23`, the “activity change, negative = cytotoxicity” value is reported as inactive: 3.96%. For `CCOc1ccc(CCNC(=O)Cn2c(-c3cccs3)cc3ccccc32)cc1`, the “activity change, negative = cytotoxicity” value was inactive: 0.0932%. For `COc1cn(CC(=O)Nc2cc(C)cc(C)c2)c(CN2CCCCC2)cc1=O`, the “activity change, negative = cytotoxicity” value was inactive: 2.59%. For `CCC(C)S(=O)(=O)c1oc(-c2cccs2)nc1S(=O)(=O)c1ccccc1` (configuration not stated), the Potency was active: 2.51 µM. In the case of `COc1cccc(-c2nnc(SCC(=O)N(C)C3CCCCC3)o2)c1`, the “activity change, negative = cytotoxicity” value is reported as inactive: 20%. For `CN1CCc2nc3sc(C(=O)c4ccc(F)cc4)c(N)c3cc2C1`, the “activity change, negative = cytotoxicity” value was inactive: 3.03%. In the case of `CCOc1ccccc1CNCc1c(C(=O)O)c(C)n(Cc2ccc(C)cc2)c1C`, the “activity change, negative = cytotoxicity” value is reported as inactive: -0.973%. In the case of `CCOc1ccc(CCNC(=O)c2cnc3c(-c4ccc(F)cc4)c(C)nn3c2C)cc1`, the “activity change, negative = cytotoxicity” value is reported as inactive: -10.1%. With `O=C(NCCCN1CCN(c2ccccc2)CC1)c1sc2ncccc2c1-n1cccc1` the “activity change, negative = cytotoxicity” value was inactive: -24.4%. For `COc1ccc(C(=O)c2cn(Cc3ccccc3)c3ccccc3c2=O)cc1OC`, the “activity change, negative = cytotoxicity” value was inactive: -1.34%. In the case of `CN1C(C(=O)Nc2cccc(O)c2)=CC(c2cccs2)=NS1(=O)=O`, the “activity change, negative = cytotoxicity” value is reported as inactive: -10.5%. In the case of `O=C(NCCc1nc2ccccc2n1Cc1ccccc1F)c1ccc(F)cc1`, the “activity change, negative = cytotoxicity” value is reported as inactive: -0.702%. For `COc1ccc(N(C(=O)c2ccccc2C)S(=O)(=O)c2ccc(Cl)cc2)cc1`, the “activity change, negative = cytotoxicity” value was inactive: -1.36%. With `Nc1ncc(S(=O)(=O)NCc2ccccc2)cn1` the “activity change, negative = cytotoxicity” value was inactive: 8.34%. With `COc1cc(S(=O)(=O)NCCc2c(C)[nH]c3ccc(C)cc23)ccc1Br` the “activity change, negative = cytotoxicity” value was inactive: 0.471%. For `COc1cccc(-n2c(SCc3cccc(C)c3)nc3c([nH]c4ccccc43)c2=O)c1`, the “activity change, negative = cytotoxicity” value was inactive: 14.3%. For `CCOc1ccc(-n2ccnc2SCC(=O)Nc2cc(C)ccc2C)cc1`, the “activity change, negative = cytotoxicity” value was inactive: -23.2%. For `O=C(C1CCC1)N1CCCc2cc(S(=O)(=O)N3CCN(c4cccc(Cl)c4)CC3)ccc21`, the “activity change, negative = cytotoxicity” value was inactive: 1.97%. With `CCOc1ccccc1NC(=O)COC(=O)CC(C)(C)CC1=NS(=O)(=O)c2ccccc2N1` the “activity change, negative = cytotoxicity” value was inactive: -3.41%. For `Cc1onc(-c2ccccc2Cl)c1C(=O)Oc1ccc(Cl)cc1Cl`, the “activity change, negative = cytotoxicity” value was inactive: -14.6%. For `Cc1ccc(C)c(NC(=O)C(=O)NCCCN2CCOCC2)c1`, the “activity change, negative = cytotoxicity” value was inactive: 4.4%. For `COc1ccc(Nc2ncc(C(=O)Nc3cccc(Cl)c3)c3ccccc23)cc1`, the “activity change, negative = cytotoxicity” value was inactive: 7.22%. With `Cc1ccc(OCC(=O)NCC2(N3CCN(C)CC3)CCCCC2)cc1` the “activity change, negative = cytotoxicity” value was inactive: -1.08%. For `COc1ccccc1Nc1nc(C)nc(N)c1S(=O)(=O)c1ccccc1`, the “activity change, negative = cytotoxicity” value was inactive: 16.8%. For `Cc1nc2c3cccnc3nn2c(C)c1CCC(=O)NCc1ccccc1`, the “activity change, negative = cytotoxicity” value was inactive: 6.84%. In the case of `CCN(CC)S(=O)(=O)c1ccc2c(c1)nc(CN(C)C(=O)Nc1ccc(C)c(Cl)c1)n2C`, the “activity change, negative = cytotoxicity” value is reported as inactive: -2.01%. In the case of `Cc1ccc(C)c(NC(=O)c2cc(S(=O)(=O)NCc3ccccc3)ccc2F)c1`, the “activity change, negative = cytotoxicity” value is reported as inactive: -29.2%. With `CC(C)CCNC(=O)c1cnc2sc(N3CCCCCC3)nn2c1=O` the “activity change, negative = cytotoxicity” value was inactive: -5.61%. In the case of `COc1ccc(CNC(=O)c2ccc(Cn3c(=O)c4cccn4c4cccnc43)cc2)c(OC)c1`, the “activity change, negative = cytotoxicity” value is reported as inactive: 0.229%. For `Cc1ccc(O)c(NC(=O)c2cc(-c3ccc(F)cc3)no2)c1`, the “activity change, negative = cytotoxicity” value was inactive: 11.4%. In the case of `Cc1ccc(Cl)cc1N1CCN(C(=O)c2ccc3c(Cl)c4c(nc3c2)CCCC4)CC1`, the “activity change, negative = cytotoxicity” value is reported as inactive: 15.5%. With `O=C(Cn1c(=O)ccc2cc(S(=O)(=O)N3CCCC3)ccc21)Nc1ccccc1` the “activity change, negative = cytotoxicity” value was inactive: 18.1%. With `COc1cccc(-c2nc(CS(=O)(=O)CC(=O)N3CCN(c4ccccc4)CC3)c(C)o2)c1` the “activity change, negative = cytotoxicity” value was inactive: 1.21%. For `CCn1cc(C(=O)NCCC(C)C)c(=O)c2cc(S(=O)(=O)N(C)C3CCCCC3)ccc21`, the “activity change, negative = cytotoxicity” value was inactive: 1.54%. In the case of `CCC(=O)N1c2ccccc2CC1C(=O)NCCCN1CCN(c2ccc(OC)cc2)CC1` (configuration not stated), the “activity change, negative = cytotoxicity” value is reported as inactive: 6.37%. For `CC1CCCCN1c1cc2c(cc1F)c(=O)c(S(=O)(=O)c1ccccc1)cn2Cc1ccccc1` (configuration not stated), the “activity change, negative = cytotoxicity” value was inactive: -0.651%. In the case of `O=S(=O)(Nc1ccc(O)c(Sc2nc3ccccc3s2)c1)c1cc(Cl)ccc1Cl`, the “activity change, negative = cytotoxicity” value is reported as inactive: 7.1%. With `O=C(Cn1c(-c2cccs2)cc2cc(F)ccc21)NCCc1ccc(Cl)cc1` the “activity change, negative = cytotoxicity” value was inactive: -12.4%. In the case of `CCCCOc1ccc(CNC(=O)c2cnc3sc(N4CCCC4)nn3c2=O)cc1`, the “activity change, negative = cytotoxicity” value is reported as inactive: 7.96%. For `COc1ccc(-c2nc(CNC(=O)Nc3ccccc3)c(C)o2)c(OC)c1`, the “activity change, negative = cytotoxicity” value was inactive: 3.18%. In the case of `CCn1ccc2c(OCC(=O)Nc3ccc(OC)cc3OC)cccc2c1=O`, the “activity change, negative = cytotoxicity” value is reported as inactive: 0.011%. With `O=c1ccc(-c2ccccc2)nn1Cc1c(F)cccc1Cl` the “activity change, negative = cytotoxicity” value was inactive: -14.4%. For `CCc1ccc(CNC(=O)CCn2nc(C)c3c(C)n(-c4ccccc4)nc3c2=O)cc1`, the “activity change, negative = cytotoxicity” value was inactive: 17.5%. With `Cc1ccc(S(=O)(=O)c2cn(Cc3ccccc3)c3cc(N4CCOCC4)c(F)cc3c2=O)cc1` the “activity change, negative = cytotoxicity” value was inactive: -22.9%. For `COc1cc(NC(=O)c2noc3c2CC(C)CC3)c(OC)cc1Cl` (configuration not stated), the “activity change, negative = cytotoxicity” value was inactive: 16.2%. For `Cc1nn(-c2ccccc2)c2c1N(CCCC(=O)NC(C)c1ccccc1)C(=O)CS2` (configuration not stated), the “activity change, negative = cytotoxicity” value was inactive: 1.51%. For `Cc1nn(-c2ccccc2)c2c1N(CC(=O)N1CCN(c3ccc(Cl)cc3)CC1)C(=O)CS2`, the “activity change, negative = cytotoxicity” value was inactive: -1.26%. With `Cc1cc(C)n2nc(CNC(=O)c3ccc(Cl)cc3)nc2n1` the “activity change, negative = cytotoxicity” value was inactive: -1.16%. For `O=C(Nc1ccccc1)c1cccc(N2CCCS2(=O)=O)c1`, the “activity change, negative = cytotoxicity” value was inactive: -4.33%.
